# From PubChem BioAssay AID2546 (National Center for Advancing Translational Sciences (NCATS), 2010)
# Values joined by “and” are separate entries in the source; they are usually repeats but may differ in a detail not shown here. Identical values can stand only once. The whole screen tested about 310,000 compounds, of which about 11,000 (3.5%) were called active. This list was built around the results that the source calls inconclusive (neither active nor inactive); the mix of calls is not that of the screen. Calls come from the whole dose curve; as a rule, active = well fitted inhibition curve with a large enough effect; inconclusive = small, poorly fitted or top-dose-only effect, or effect the other way; inactive = flat fitted curve, though single readings scatter. Where the call is inconclusive, the potency comes from a doubtful curve fit.
# Assay: VP16 counterscreen qHTS for inhibitors of ROR gamma transcriptional activity;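 note: Gal4-VP16 expression switched on by copper sulfate through the metallothionein promoter; nearly all actives have a fitted effect of over 50% in size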
# Conditions: Drosophila S2 Gal4-VP16 UAS-luciferase, luminescence, 20 h; activity, negative = inhibition: at 53.6 µM (top of the series)
# % is set by controls: 0 for no effect and ±100 for the full control effect; potency is the fitted concentration of half-maximal effect; tags give direction and shape of the fitted curve.
SMILES,"activity, negative = inhibition",Potency
COC(=O)[C@@H]1CC[C@H](C)[C@@H](c2ccc(C)cc2)N1C(=O)c1ccc(/C=N\OC[C@@H](O)[C@H]2O[C@H]3OC(C)(C)O[C@H]3[C@@H]2O)cc1,inactive: -2.42% [at 10 µM],–
CC(C)(C)N1CC(C(=O)Nc2ccc(C#N)cc2)CC1=O (stereo not given),inactive: -12.5%,–
O=C1CN(c2ccccc2)C(=S)N1C(=O)c1ccc(Br)cc1,–,"inconclusive: 35.5 µM [inhibitor, single point]"
O=C(c1ccc2c3c(cccc13)CC2)C1CCCN(Cc2ccncc2)C1 (stereo not given),–,"inconclusive: 35.5 µM [inhibitor, single point]"
Cc1ccc(C(=O)c2c[nH]cc2-c2ccccc2)cc1,–,"inconclusive: 35.5 µM [inhibitor, single point]"
COc1ccc(Cn2nnnc2CN(Cc2cc3cc(C)ccc3[nH]c2=O)C2CCCC2)cc1,–,"inconclusive: 35.5 µM [inhibitor, single point]"
COc1ccccc1-c1ccc(/C=C2/C=C(C)OC2=O)o1,–,"inconclusive: 35.5 µM [inhibitor, single point]"
Cc1ccccc1OCC(O)CNC1CCC(NCC(O)COc2ccccc2C)CC1 (stereo not given),–,"inconclusive: 35.5 µM [inhibitor, single point]"
COc1ccc(C2=NN(c3nc4ccccc4s3)C(=O)/C2=C\N(C)C)cc1,–,"inconclusive: 35.5 µM [inhibitor, single point]"
Cc1cc(C)c2nc(C)cc(N/N=C/c3ccc(O)cc3)c2c1,–,active: 4.47 µM
O=C(N=Nc1c(O)[nH]c2ccccc12)c1cc(NS(=O)(=O)c2cccs2)cc(NS(=O)(=O)c2cccs2)c1,–,"inconclusive: 15.8 µM [inhibitor, single point]"
O=C(Nc1cccc(NC(=O)C2CC3CCCC(C2)C3=O)n1)C1CC2CCCC(C1)C2=O (stereo not given),–,"inconclusive: 31.6 µM [inhibitor, single point]"
CCn1c(SCC(=O)Nc2cc(C)on2)nnc1-c1ccccc1,inactive: -15.6%,–
COC(=O)C1Cc2ccccc2CN1S(=O)(=O)c1ccc(F)cc1 (stereo not given),inactive: 5.16%,–
Cc1cc(N2CCCC2)nc2ccc(NC(=S)NCCCOC(C)C)cc12,–,"inconclusive: 35.5 µM [inhibitor, single point]"
C/C(=N\NC(=O)c1ccccc1O)c1ccc(NC(=O)c2ccccc2)cc1,–,"inconclusive: 25.1 µM [inhibitor, single point]"
OCCn1c(SC2CCCCC2)nc2ccccc21,–,"inconclusive: 35.5 µM [inhibitor, single point]"
COc1ccc(/C=C/C(=O)NC(=S)N2CCSCC2)cc1,–,active: 12.6 µM
COC(=O)C1=C(C)Nc2nnnn2C1c1cccnc1 (stereo not given),–,"inconclusive: 11.2 µM [inhibitor, single point]"
Oc1c(C(c2ccccn2)N2CCOCC2)ccc2cccnc12 (stereo not given),–,active: 2.82 µM
CC1CC(C)CN(C(=O)/C(=C\c2ccccc2)c2ccccc2)C1 (stereo not given),inactive: -7.56%,–
C/C(N)=C(/C#N)C(=O)COC(=O)c1ccccc1O,–,"inconclusive: 7.08 µM [activator, partial curve]"
CCCCc1ccc(N/C(N)=N/c2nc(C)cc(C)n2)cc1,–,"inconclusive: 20 µM [inhibitor, single point]"

SMILES,"activity, negative = inhibition",Potency
C/C(=N\NC(=O)c1ccc(OC2CCCC2)cc1)c1ccc(O)cc1,–,"inconclusive: 8.91 µM [inhibitor, partial curve]"
Cc1c(CCC(=O)NCCCC(=O)O)c(=O)oc2cc3oc4c(c3cc12)CCCC4,–,"inconclusive: 10 µM [inhibitor, partial curve]"
NC(=O)CC(NC(=O)c1ccccc1)c1ccc(N2CCCCCCC2)c([N+](=O)[O-])c1 (stereo not given),–,"inconclusive: 22.4 µM [inhibitor, single point]"
C/C(=N\Nc1nc2ccc(Cl)cc2o1)c1ccccc1,–,"inconclusive: 20 µM [inhibitor, single point]"
Nc1cccc2c1C(=O)N(C(=O)/C=C/c1cccc(F)c1)C2=O,–,active: 22.4 µM
COc1ccc(NC(=S)NC2CCCCCC2)c(OC)c1,–,active: 7.08 µM
COc1ccc(NC(=O)c2cccc(N3C(=O)c4cccc([N+](=O)[O-])c4C3=O)c2)cc1,inactive: -9.29%,–
Cc1noc(C)c1COC(=O)CCCc1nc2ccccc2s1,–,active: 7.94 µM
CC(=C/C(=O)O)/C=C/c1ccc(Cl)o1,–,"inconclusive: 15.8 µM [activator, single point]"
CCN1C(=O)/C(=C2/Sc3ccccc3N2CC)SC1=S,inactive: 3.06%,–
COc1ccc(/C=N\n2nnc3ccccc32)cc1,–,"inconclusive: 11.2 µM [inhibitor, single point]"
O=C(NN=C1CCCC1)c1cc(O)cc(O)c1,inactive: -8.94%,–
CCN(CC)C(=O)c1[nH]cnc1C(=O)N[C@@H](Cc1ccccc1)C(=O)OC(C)(C)C,–,"inconclusive: 25.1 µM [inhibitor, single point]"
COc1ccc(CCN(C)C2CC(=O)N(c3ccccc3)C2=O)cc1OC (stereo not given),–,active: 15.8 µM
CCCCCc1cc(=O)oc2c(C(CCN3CCCCC3)c3ccc(OC)cc3)c(OC)cc(OC)c12 (stereo not given),–,"inconclusive: 35.5 µM [inhibitor, single point] and inconclusive: 31.6 µM [inhibitor, single point]"
COc1cc(C)nc(N2CCCC(C(=O)Nc3cccc(Cl)c3C)C2)n1 (stereo not given),inactive: -12.1%,–
Fc1ccc(N2CCN(Cc3cn[nH]c3-c3ccccc3)CC2)cc1,–,"inconclusive: 11.2 µM [inhibitor, partial curve]"
N=C(N)SCc1cn(-c2ccccc2)nc1-c1ccc(Br)cc1,–,"inconclusive: 35.5 µM [inhibitor, single point]"
CCOC(=O)C1(CC2CCCCO2)CCN(C(=O)Nc2ccc(SC)cc2)CC1 (stereo not given),inactive: -11.9%,–
COc1cccc2c1OCC(CN1CCN(Cc3ccccc3F)C(CCO)C1)=C2 (stereo not given),inactive: -0.677%,–
CSc1ccccc1C(=O)Nc1ccc2c(c1)OCO2,–,"inconclusive: 3.98 µM [activator, full curve]"
CCc1noc(C)c1C(=O)Nc1nc(-c2ccc(Cl)cc2Cl)cs1,–,"inconclusive: 17.8 µM [inhibitor, single point]"
